The list shows a part of the results. At the low end of the ranking the order means little.

This experiment deals with GST-SBP-SLBP (stem-loop binding protein) (UniProt Q14493). Description: targeted RNA Bind-n-Seq.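 Note: DESeq read counts versus GST-SBP nonspecific binding control pulldown.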 The note with it: RBNS binding buffer: 25 mM Tris pH 7.5, 150 mM KCl, 3 mM MgCl2, 0.1% Tween, 0.5 mg/mL BSA, 1 mM DTT; 27 nM protein, 750 pM RNA pool; temperature not stated; high values mean tight binding.
For the sequence “GGUCACGUCUCAAUCAACUCAUUUCCAGGAGUUUCCUCCUGCAAUUUCAACAGCUCGCAGUCAAG”, the binding signal (log2 fold change) was -0.0116.
“GGUCACGUCUCAAUCAACUCUAUCUCCAGGGAAACCCCUGGUAUUCUCAACAGCUCGCAGUCAAG”: the binding signal (log2 fold change) came to 0.144.
For “GGUCACGUCUCAAUCAACUCAUGUCCCAGGGAAAACCCUGGUUUUUUCAACAGCUCGCAGUCAAG”, the binding signal (log2 fold change) is -0.204.
As to “GGUCACGUCUCAAUCAACUCUUUUUCCAGGGAAACCCCUGGCAUACUCAACAGCUCGCAGUCAAG”, the binding signal (log2 fold change) was 0.44.
Then “GGUCACGUCUCAAUCAACUCAUUCUCAGGAGUUUCCUCCUGUAUAUUCAACAGCUCGCAGUCAAG”, with -0.16; and “GGUCACGUCUCAAUCAACUCAUCCUCCAGGGAAAGCCCUGGUAAUUUCAACAGCUCGCAGUCAAG”, with -0.135; and “GGUCACGUCUCAAUCAACUCUUUCUCCAGGGAAAACCCUGGUAUUCUCAACAGCUCGCAGUCAAG”, with 0.00444.
In the case of “GGUCACGUCUCAAUCAACUCCUAAGAGGGGGGGAAAACCCCUUUGCCCUCAUUCUCAACAGCUCGCAGUCAAG”, the binding signal (log2 fold change) is 0.335.
Consider “GGUCACGUCUCAAUCAACUCACAAGAGGGGGGGAAAACCCCUUUACCCUCAAACUCAACAGCUCGCAGUCAAG”, for which the binding signal (log2 fold change) is -0.666.
With “GGUCACGUCUCAAUCAACUCUAGUCCCAGGGAAAGCCCUGGUUAAUUCAACAGCUCGCAGUCAAG”, the binding signal (log2 fold change) is -0.299.
In the case of “GGUCACGUCUCAAUCAACUCAAUUCCAGGAGUUUCCUCCUGUUAACUCAACAGCUCGCAGUCAAG”, the binding signal (log2 fold change) is -0.0629.
As for “GGUCACGUCUCAAUCAACUCAAUUUCCAGGGAAACCCCUGGUUUACUCAACAGCUCGCAGUCAAG”, the binding signal (log2 fold change) was 0.23.
The same measure for “GGUCACGUCUCAAUCAACUCUUUCUCAGGAGUUUUCUCCUGCUAACUCAACAGCUCGCAGUCAAG”: -0.0981; for “GGUCACGUCUCAAUCAACUCAAUCCCAGGAGUUUUCUCCUGCUAACUCAACAGCUCGCAGUCAAG”: -0.0624; for “GGUCACGUCUCAAUCAACUCUACUUCCAGGGAAAACCCUGGCAAACUCAACAGCUCGCAGUCAAG”: 0.31.
As for “GGUCACGUCUCAAUCAACUCUUUAGAGGGGGGGAAAACCCCUUUGCCCUCCAAAUCAACAGCUCGCAGUCAAG”, the binding signal (log2 fold change) is -0.015.
For the sequence “GGUCACGUCUCAAUCAACUCCUAGGAGGGGGGGAAAACCCCUUUACCCUCACCAUCAACAGCUCGCAGUCAAG”, the binding signal (log2 fold change) is -0.308.
Turning to “GGUCACGUCUCAAUCAACUCAUCUUCAGGAGUUUACUCCUGCAAACUCAACAGCUCGCAGUCAAG”, the binding signal (log2 fold change) was 0.0764.
Consider “GGUCACGUCUCAAUCAACUCUUAAGAGGGGGGGAAAACCCCUUUGCCCUCAUAUUCAACAGCUCGCAGUCAAG”, for which the binding signal (log2 fold change) is -0.131.
In the case of “GGUCACGUCUCAAUCAACUCUUCGUCCAGGGAAAGCCCUGGUAAUCUCAACAGCUCGCAGUCAAG”, the binding signal (log2 fold change) was found to be 0.186.
Consider “GGUCACGUCUCAAUCAACUCAAUAGAGGGGGGGAAAACCCCUUUGCCCUCAACUUCAACAGCUCGCAGUCAAG”, for which the binding signal (log2 fold change) is -0.0539.
Regarding “GGUCACGUCUCAAUCAACUCAUUUCCAGGAGUUUACUCCUGUAGUCUCAACAGCUCGCAGUCAAG”, the binding signal (log2 fold change) worked out at 0.104.
As to “GGUCACGUCUCAAUCAACUCAUCGUCCAGGGAAAGCCCUGGUAAUCUCAACAGCUCGCAGUCAAG”, the binding signal (log2 fold change) is -0.108.
On to “GGUCACGUCUCAAUCAACUCUAGUCCCAGGGAAACCCCUGGUUAUUUCAACAGCUCGCAGUCAAG”, for which the binding signal (log2 fold change) is 0.123.
On to “GGUCACGUCUCAAUCAACUCUAUUCCAGGAGUUUCCUCCUGUUUAUUCAACAGCUCGCAGUCAAG”, for which the binding signal (log2 fold change) is -0.206.
Turning to “GGUCACGUCUCAAUCAACUCAUCCGAGGGGGGGAAAACCCCUUUACCCUCUUUUUCAACAGCUCGCAGUCAAG”, the binding signal (log2 fold change) is -0.0414.
For the sequence “GGUCACGUCUCAAUCAACUCAUUAGAGGGGGGGAAAACCCCUUUACCCUCCGUUUCAACAGCUCGCAGUCAAG”, the binding signal (log2 fold change) was 0.204.
Take “GGUCACGUCUCAAUCAACUCUUCCUCCAGGGAAAUCCCUGGCAAACUCAACAGCUCGCAGUCAAG”: the binding signal (log2 fold change) was -0.247.
Then “GGUCACGUCUCAAUCAACUCAUCGUCCAGGGAAACCCCUGGUAAUCUCAACAGCUCGCAGUCAAG”, with -0.0806.
In the case of “GGUCACGUCUCAAUCAACUCAACUUCCAGGGAAAUCCCUGGCUUAUUCAACAGCUCGCAGUCAAG”, the binding signal (log2 fold change) is -0.0874.
The same measure for “GGUCACGUCUCAAUCAACUCUUUUCCAGGAGUUUACUCCUGCAUUUUCAACAGCUCGCAGUCAAG”: 0.228.
Regarding “GGUCACGUCUCAAUCAACUCAUUUCCCAGGGAAAUCCCUGGCAUAUUCAACAGCUCGCAGUCAAG”, the binding signal (log2 fold change) is -0.0728.
Then “GGUCACGUCUCAAUCAACUCAUUCUCCAGGGAAAACCCUGGCAUAUUCAACAGCUCGCAGUCAAG”, with 0.114; and “GGUCACGUCUCAAUCAACUCUACGGAGGGGGGGAAAACCCCUUUACCCUCAUUAUCAACAGCUCGCAGUCAAG”, with -0.364.
In the case of “GGUCACGUCUCAAUCAACUCCAAAGAGGGGGGGAAAACCCCUUUACCCUCCUUAUCAACAGCUCGCAGUCAAG”, the binding signal (log2 fold change) came to 0.238.
The same measure for “GGUCACGUCUCAAUCAACUCAACUUCCAGGGAAAACCCUGGUUUUUUCAACAGCUCGCAGUCAAG”: -0.393; for “GGUCACGUCUCAAUCAACUCACUAGAGGGGGGGAAAACCCCUUUACCCUCAUUCUCAACAGCUCGCAGUCAAG”: 0.0874; for “GGUCACGUCUCAAUCAACUCUCAAGAGGGGGGGAAAACCCCUUUACCCUCAUCAUCAACAGCUCGCAGUCAAG”: -0.573.
Regarding “GGUCACGUCUCAAUCAACUCUUUCCCAGGAGUUUUCUCCUGUUAACUCAACAGCUCGCAGUCAAG”, the binding signal (log2 fold change) came out at 0.111.
In the case of “GGUCACGUCUCAAUCAACUCUUUUCCAGGAGUUUCCUCCUGCAAUUUCAACAGCUCGCAGUCAAG”, the binding signal (log2 fold change) amounted to 0.0922.
On to “GGUCACGUCUCAAUCAACUCAUCGGCAGGAGUUUUCUCCUGGAAUCUCAACAGCUCGCAGUCAAG”, for which the binding signal (log2 fold change) turned out to be 0.078.
On to “GGUCACGUCUCAAUCAACUCUCAAGAGGGGGGGAAAACCCCUUUACCCUCGUAAUCAACAGCUCGCAGUCAAG”, for which the binding signal (log2 fold change) was determined as 0.147.
“GGUCACGUCUCAAUCAACUCAUCUCCCAGGGAAAUCCCUGGCUAACUCAACAGCUCGCAGUCAAG”: the binding signal (log2 fold change) is -0.0124.
“GGUCACGUCUCAAUCAACUCAUCCCCCAGGGAAAUCCCUGGUAUUCUCAACAGCUCGCAGUCAAG”: the binding signal (log2 fold change) is -0.308.
The same measure for “GGUCACGUCUCAAUCAACUCAAUUUCCAGGGAAAGCCCUGGUUAACUCAACAGCUCGCAGUCAAG”: 0.204; for “GGUCACGUCUCAAUCAACUCAACAGAGGGGGGGAAAACCCCUUUACCCUCAAUCUCAACAGCUCGCAGUCAAG”: -0.303.
For “GGUCACGUCUCAAUCAACUCUAUCCCCAGGGAAAUCCCUGGCAAAUUCAACAGCUCGCAGUCAAG”, the binding signal (log2 fold change) was -0.0972.
Then “GGUCACGUCUCAAUCAACUCAUCAGAGGGGGGGAAAACCCCUUUGCCCUCACAAUCAACAGCUCGCAGUCAAG”, with 0.0708; and “GGUCACGUCUCAAUCAACUCGUUUUCAGGAGUUUUCUCCUGUAUUUUCAACAGCUCGCAGUCAAG”, with -0.054.
As to “GGUCACGUCUCAAUCAACUCAGUCUCAGGAGUUUGCUCCUGUAUUUUCAACAGCUCGCAGUCAAG”, the binding signal (log2 fold change) came out at 0.0422.
With “GGUCACGUCUCAAUCAACUCAUACGAGGGGGGGAAAACCCCUUUACCCUCUUUUUCAACAGCUCGCAGUCAAG”, the binding signal (log2 fold change) is -0.13.
For “GGUCACGUCUCAAUCAACUCUACUCCCAGGGAAACCCCUGGUAAUCUCAACAGCUCGCAGUCAAG”, the binding signal (log2 fold change) came out at 0.243.
Then “GGUCACGUCUCAAUCAACUCUCCAGAGGGGGGGAAAACCCCUUUGCCCUCAAAUUCAACAGCUCGCAGUCAAG”, with -0.106; and “GGUCACGUCUCAAUCAACUCAGUUUCAGGAGUUUACUCCUGCAUUUUCAACAGCUCGCAGUCAAG”, with -0.217; and “GGUCACGUCUCAAUCAACUCAUCCUCCAGGGAAAUCCCUGGUAAUUUCAACAGCUCGCAGUCAAG”, with 0.194.
With “GGUCACGUCUCAAUCAACUCAUCUUCAGGAGUUUACUCCUGCUUUGUCAACAGCUCGCAGUCAAG”, the binding signal (log2 fold change) turned out to be 0.159.
The same measure for “GGUCACGUCUCAAUCAACUCUUUUUCAGGAGUUUACUCCUGUAAUCUCAACAGCUCGCAGUCAAG”: 0.0791; for “GGUCACGUCUCAAUCAACUCAAUGUCAGGAGUUUUCUCCUGUUUACUCAACAGCUCGCAGUCAAG”: 0.174.
As for “GGUCACGUCUCAAUCAACUCAACUCCAGGAGUUUACUCCUGUAAUCUCAACAGCUCGCAGUCAAG”, the binding signal (log2 fold change) worked out at 0.456.
“GGUCACGUCUCAAUCAACUCAUCUCCCAGGGAAAACCCUGGCUAACUCAACAGCUCGCAGUCAAG”: the binding signal (log2 fold change) was -0.0349.
“GGUCACGUCUCAAUCAACUCUAUCUCAGGAGUUUCCUCCUGUUAUCUCAACAGCUCGCAGUCAAG”: the binding signal (log2 fold change) came out at 0.157.
On to “GGUCACGUCUCAAUCAACUCUUCUCCAGGAGUUUUCUCCUGUAAUUUCAACAGCUCGCAGUCAAG”, for which the binding signal (log2 fold change) was -0.0241.
With “GGUCACGUCUCAAUCAACUCUUUCUCAGGAGUUUACUCCUGUUAAUUCAACAGCUCGCAGUCAAG”, the binding signal (log2 fold change) was found to be 0.211.
Take “GGUCACGUCUCAAUCAACUCAGUUUCAGGAGUUUGCUCCUGUAUUUUCAACAGCUCGCAGUCAAG”: the binding signal (log2 fold change) turned out to be 0.00435.
For “GGUCACGUCUCAAUCAACUCAUUUCCCAGGGAAAACCCUGGUAUUCUCAACAGCUCGCAGUCAAG”, the binding signal (log2 fold change) was 0.178.
In the case of “GGUCACGUCUCAAUCAACUCUUUUUCAGGAGUUUACUCCUGCAAUCUCAACAGCUCGCAGUCAAG”, the binding signal (log2 fold change) was -0.0284.
The same measure for “GGUCACGUCUCAAUCAACUCUACUUCCAGGGAAAACCCUGGCUAUUUCAACAGCUCGCAGUCAAG”: -0.109; for “GGUCACGUCUCAAUCAACUCUAUUCCAGGAGUUUUCUCCUGCAUAUUCAACAGCUCGCAGUCAAG”: -0.131.
As to “GGUCACGUCUCAAUCAACUCAUCGUCAGGAGUUUGCUCCUGUAAUUUCAACAGCUCGCAGUCAAG”, the binding signal (log2 fold change) is -0.0164.
In the case of “GGUCACGUCUCAAUCAACUCGUCUUCAGGAGUUUACUCCUGCUUAUUCAACAGCUCGCAGUCAAG”, the binding signal (log2 fold change) was found to be 0.0165.
With “GGUCACGUCUCAAUCAACUCUUAAGAGGGGGGGAAAACCCCUUUACCCUCCAAAUCAACAGCUCGCAGUCAAG”, the binding signal (log2 fold change) was -0.0057.
As for “GGUCACGUCUCAAUCAACUCAUCUCCCAGGGAAAACCCUGGCUUACUCAACAGCUCGCAGUCAAG”, the binding signal (log2 fold change) was found to be 0.244.
As to “GGUCACGUCUCAAUCAACUCUUUCUCCAGGGAAACCCCUGGUAAUCUCAACAGCUCGCAGUCAAG”, the binding signal (log2 fold change) was -0.1.
For the sequence “GGUCACGUCUCAAUCAACUCAUCUUCAGGAGUUUGCUCCUGCUAUCUCAACAGCUCGCAGUCAAG”, the binding signal (log2 fold change) is 0.00705.
